The campaign covered roughly 150,000 compounds. About 540 (0.36%) showed an effect of 50% or more. Some of the results follow.
The molecules below were run on Plasmodium falciparum (assay: Primary screen in NF54 nanoGlo assay, in single point, at 2uM, 72h; a lower Z score goes with more inhibition). Settings: timepoint 72 hour.
Assay type: functional, Erythrocyte
`Cc1ccnc(NCCCN2C(=O)COc3ccccc32)n1` was tested, and the “% Inhibition” value was -7% and the Z score was 0.75.
For `COc1ccc([C@@H](C)C(=O)N2CCc3[nH]ncc3C2)cc1OC`, the “% Inhibition” value was 10% and the Z score was -1.04.
With `O=C(CCOc1ccc(F)c(Cl)c1)NCc1cccnc1` the “% Inhibition” value was 15% and the Z score was -2.11.
With `CCOC(=O)N1CCN(C(=O)C[C@]2(c3ccccc3)CC(=O)N(CC3CCCCC3)C2=O)CC1` the “% Inhibition” value was 17% and the Z score was -2.18.
For `CCS(=O)(=O)Nc1c(C)cccc1F`, the “% Inhibition” value was -2% and the Z score was 0.33.
With `O=C(CCC(=O)N1CCN(c2ccc(Cl)c(Cl)c2)CC1)c1ccccc1` the “% Inhibition” value was 6% and the Z score was -0.94.
`O=C(NCCc1ccc2c(c1)OCCO2)[C@H]1CCS(=O)(=O)C1` was tested, and the “% Inhibition” value was -15% and the Z score was 2.7.
For `Cn1nc(C(C)(C)C)c2c1NC(=O)C[C@@H]2c1ncc[nH]1`, the “% Inhibition” value was 4% and the Z score was -0.53.
In the case of `Cc1cccc(OC2(C(=O)O)CCN(C/C=C/c3ccccc3)CC2)c1`, the “% Inhibition” value was -14% and the Z score was 2.65.
`CCC(CC)(CN=C1NCCCCN1)OC` was tested, and the “% Inhibition” value was -11% and the Z score was 1.46.
`NC(=O)[C@H](Cc1ccccc1)n1ccnc1-c1cccc(Cl)c1` was tested, and the “% Inhibition” value was -7% and the Z score was 0.8.
With `Cc1csc(C)c1S(=O)(=O)Nc1ncc2c(n1)CCOC2` the “% Inhibition” value was -7% and the Z score was 0.98.
`Cc1ccc(/C=C(\C(=O)N2CCC(C)CC2)n2ccccc2=O)cc1` was tested, and the “% Inhibition” value was 6% and the Z score was -0.77.
`CCN(CC(=O)Nc1ccc(NC(C)=O)cc1)C(=O)c1cc2c(s1)CCC2` was tested, and the “% Inhibition” value was -5% and the Z score was 0.46.
In the case of `Cc1nc(C(=O)Nc2cccc3[nH]ccc23)c(C(C)C)s1`, the “% Inhibition” value was 9% and the Z score was -1.16.
For `CC(C)(C)c1noc(-c2cccnc2-n2cnc(C(=O)Nc3ccccc3)c2)n1`, the “% Inhibition” value was 5% and the Z score was -0.67.
With `CC1CCC2(CC1)NC(=O)N(Cc1csc(-c3ccco3)n1)C2=O` (configuration not stated) the “% Inhibition” value was 26% and the Z score was -3.41.
`Nc1nc2c(c(C(=O)NCCc3nccs3)n1)CCCC2` was tested, and the “% Inhibition” value was 8% and the Z score was -1.06.
`COCCCNC(=O)[C@@H](C#N)C(=O)c1ccc2c(c1)CCC2` was tested, and the “% Inhibition” value was -8% and the Z score was 0.97.
With `CC1(C)CN(C(=O)CC2CCNCC2)C[C@@H]1c1ccccc1` the “% Inhibition” value was -4% and the Z score was 0.61.
With `CC[C@H]1OCC[C@@H]1NC(=O)Nc1cc(Br)cnc1C` the “% Inhibition” value was -6% and the Z score was 1.04.
For `NC(=O)N1CCC(C(=O)N(Cc2ccccc2)C2CCCCC2)CC1`, the “% Inhibition” value was -7% and the Z score was 0.71.
In the case of `CC1(C)OCC[C@@H]1NC(=O)C12CCC(CC1)C2`, the “% Inhibition” value was -12% and the Z score was 1.89.
For `CCc1nnc(NCc2csc(N(C)C)n2)o1`, the “% Inhibition” value was -18% and the Z score was 1.62.
With `Cc1csc2c(N3CCC[C@@H]3CN3CCCC3)ncnc12` the “% Inhibition” value was 3% and the Z score was -0.57.
In the case of `COc1cc(OC)c(NC(=O)C2CCN(c3cc(=O)n(C)c(=O)n3C)CC2)cc1Cl`, the “% Inhibition” value was -6% and the Z score was 1.01.
`C[C@@](CO)(NCCOCC(F)(F)F)C1CCCCC1` was tested, and the “% Inhibition” value was -2% and the Z score was 0.32.
For `Fc1ccc(C(NCCC2CCCO2)c2ccccc2)nc1` (configuration not stated), the “% Inhibition” value was -7% and the Z score was 0.94.
With `C#CCN(CC1C(C)=CCCC1C)C1CCS(=O)(=O)C1` (configuration not stated) the “% Inhibition” value was 3% and the Z score was -0.34.
In the case of `NC(=O)Cn1ccnc1[C@H]1CCCN(C(=O)C2CCCCCC2)C1`, the “% Inhibition” value was -3% and the Z score was 0.6.
In the case of `CC1(C)C[C@H](NC(=O)c2ccco2)[C@@]2(CCC(=O)NCCN3CCOCC3)CC[C@](C)(O)C[C@@H]12`, the “% Inhibition” value was -7% and the Z score was 1.09.
In the case of `COc1cccc(NC(=O)N2CCCC3CCCC32)c1` (configuration not stated), the “% Inhibition” value was -2% and the Z score was 0.21.
With `COc1ccc(S(=O)(=O)N2CCC(c3c(C)n(Cc4c(F)cccc4Cl)c4ccccc34)CC2)cc1` the “% Inhibition” value was -11% and the Z score was 1.52.
For `CCNC(=O)N1CCc2nc(N3CCN(c4ccccc4)CC3)nc(N(C)C(C)C)c2C1`, the “% Inhibition” value was 8% and the Z score was -1.45.
For `O=C(c1ccsc1)N1C[C@H]2CCCC[C@@]2(C(=O)O)C1`, the “% Inhibition” value was -9% and the Z score was 0.89.
With `CN1CCc2c(CNC(=O)[C@@H]3CCCO3)c3c(c(O)c2C1=O)OCO3` the “% Inhibition” value was -18% and the Z score was 2.37.
In the case of `O=C(c1ccccc1O)N1CCC2(CCC(O)CC2)CC1`, the “% Inhibition” value was -2% and the Z score was 0.26.
With `CCN(CC)C(=O)c1cnc2snc(C)c2c1N1CCC(C(=O)Nc2cc(F)ccc2F)CC1` the “% Inhibition” value was 6% and the Z score was -0.96.
`Cc1cc(C(=O)N2CCC[C@@H](Nc3ncnc4sccc34)C2)on1` was tested, and the “% Inhibition” value was -6% and the Z score was 1.28.
For `C=CCN(C(=O)Cc1nnn(C(C)(C)C)n1)C(C)(C)C`, the “% Inhibition” value was -3% and the Z score was 0.36.
In the case of `CC(C)c1noc([C@@H]2CCCN2C(=O)c2cn3c4c(cccc4c2=O)CC3)n1`, the “% Inhibition” value was -5% and the Z score was 0.64.
For `Cn1c(NC2CCCCC2)cc(=O)n(C)c1=O`, the “% Inhibition” value was -11% and the Z score was 2.1.
In the case of `Cc1ccc2c(c1)C(=O)N(CCC1=CCCCC1)C2=O`, the “% Inhibition” value was -10% and the Z score was 1.22.
`O=C(Nc1cccnc1-n1cccn1)c1cnc2ccccc2n1` was tested, and the “% Inhibition” value was 7% and the Z score was -0.93.
In the case of `COCCc1cc(NC(=O)Nc2sc(-c3ccccc3)nc2C)n(C)n1`, the “% Inhibition” value was 38% and the Z score was -4.35.
In the case of `O=C1C[C@H](NC(=O)c2ccccn2)CN1`, the “% Inhibition” value was -6% and the Z score was 1.1.
With `Cc1nn(C)c(C)c1C(=O)Nc1ccc(OC2CCC2)c(F)c1` the “% Inhibition” value was -7% and the Z score was 0.57.
With `CC(C)c1noc(-c2ccnc(N3CCC[C@](CO)(c4ccccc4)C3)c2)n1` the “% Inhibition” value was -7% and the Z score was 0.71.
With `CCC[C@H](C)c1cn(CCc2nc3ccccc3c(=O)[nH]2)nn1` the “% Inhibition” value was -11% and the Z score was 2.2.
In the case of `O=C(O)C[C@@H]1CCN(CC2CCCCC2)C[C@@H]1Cc1nc2ccccc2[nH]1`, the “% Inhibition” value was -8% and the Z score was 1.16.
For `CCc1ccc2nc(C)cc(C(=O)N3CCC(CCC(=O)NC4CC4)CC3)c2c1`, the “% Inhibition” value was -2% and the Z score was 0.26.
`CCCn1c(=O)cc(C(C)C)c2ccc(OCC(=O)NCc3ccc4c(c3)OCO4)cc21` was tested, and the “% Inhibition” value was -7% and the Z score was 0.92.
For `COCCNC(=O)c1cc2cc(NC(=O)C3CCC3)ccc2n1Cc1cccc(F)c1`, the “% Inhibition” value was 1% and the Z score was -0.07.
`CC(C)Oc1ccc(F)cc1NC(=O)N(CCO)CCO` was tested, and the “% Inhibition” value was 29% and the Z score was -3.22.
With `Cc1cc(C(=O)Nc2cccc3cccnc23)on1` the “% Inhibition” value was -4% and the Z score was 0.32.
For `O=C(c1cccc(O)c1)N1CCc2c(CN3CCCC3)cccc21`, the “% Inhibition” value was -4% and the Z score was 0.69.
With `CCO[C@H]1COC[C@@H]1NC(=O)N1CCC(Oc2ncccn2)CC1` the “% Inhibition” value was -23% and the Z score was 1.99.
With `Cc1ccc(CN(Cc2nc(C(=O)NCc3ccc(F)cc3)co2)[C@@H](C)C(C)C)c(C)c1` the “% Inhibition” value was -1% and the Z score was 0.06.
For `C[C@@H](Cc1ccoc1)NC(=O)Nc1cccc(Cl)c1`, the “% Inhibition” value was -4% and the Z score was 0.55.
In the case of `CN(Cc1ccc(F)cc1)C(=O)Cn1c(C(F)(F)F)ccc(C(N)=O)c1=O`, the “% Inhibition” value was -2% and the Z score was 0.18.
For `CC(C(=O)N1C2CCC1CC(=O)NC2)N(C)CC(F)(F)F` (configuration not stated), the “% Inhibition” value was 32% and the Z score was -3.58.
For `Cc1csc([C@@H](C)CNC(=O)NCCc2ccco2)n1`, the “% Inhibition” value was -11% and the Z score was 1.55.
`CCc1noc(C)c1C(=O)Nc1sc(C)c(-c2ccc(OC)cc2)c1C#N` was tested, and the “% Inhibition” value was -13% and the Z score was 1.17.
With `O=S(=O)(N[C@@H]1CCCOC1)c1c(F)cccc1OC(F)(F)F` the “% Inhibition” value was 3% and the Z score was -0.45.
In the case of `COCCN1CCCN(c2ncnc3onc(C)c23)CC1=O`, the “% Inhibition” value was 0% and the Z score was -0.01.
In the case of `C[C@H]1CN(Cc2nnn(CC(F)(F)F)n2)c2ccccc2O1`, the “% Inhibition” value was -7% and the Z score was 1.08.
For `O=C(CCn1cnnn1)N1CCc2[nH]nc(-c3ccc4c(c3)OCO4)c2C1`, the “% Inhibition” value was -10% and the Z score was 2.08.
For `Cc1cc2ncc3c(n2n1)CCN(C(=O)c1cccnc1)C3`, the “% Inhibition” value was -2% and the Z score was 0.32.
With `CN(CCC1CCOCC1)Cc1ccc(Cl)o1` the “% Inhibition” value was -13% and the Z score was 2.68.
`Cc1ncc(NC(=O)c2cccc(Cl)c2Cl)s1` was tested, and the “% Inhibition” value was -11% and the Z score was 1.1.
With `CCOc1ccc2c(c1)[C@@H](NC(=O)c1cn(-c3ccc(C)cc3)nn1)CCO2` the “% Inhibition” value was 7% and the Z score was -1.
`FC(F)(F)CCN(c1ncc(Br)cn1)C1CCC1` was tested, and the “% Inhibition” value was -1% and the Z score was 0.17.
With `Cn1ccnc(Nc2cnn(-c3ccc(C(F)(F)F)cc3)c2)c1=O` the “% Inhibition” value was -8% and the Z score was 1.24.
With `O=C1NC2(CCCCC2)C(=O)N1Cc1ccccc1Oc1ccccc1` the “% Inhibition” value was 10% and the Z score was -1.18.
With `CN(Cc1cc[nH]n1)c1nc(-c2cccnc2)nc2c1CCNCC2` the “% Inhibition” value was 3% and the Z score was -0.32.
`CC(C)C[C@H]1NC(=O)[C@H]2CN(S(=O)(=O)c3ccc4ccccc4c3)CCN2C1=O` was tested, and the “% Inhibition” value was -3% and the Z score was 0.55.
In the case of `Cc1cc(C)cc(OCC(=O)N2CCN(c3snc(C)c3C#N)CC2)c1`, the “% Inhibition” value was -19% and the Z score was 2.4.
In the case of `CN(C[C@H]1CCCCO1)c1ccc2cc[nH]c2n1`, the “% Inhibition” value was -3% and the Z score was 0.6.
With `Cn1nc(C2CC2)cc1N1CCN(S(=O)(=O)c2ccccc2)CC1` the “% Inhibition” value was 10% and the Z score was -1.37.
`CCOC(=O)C1CCCN(CC(=O)N2CCCC2CC(=O)OC)C1` (configuration not stated) was tested, and the “% Inhibition” value was 2% and the Z score was -0.35.
`Cc1nnc(NCC2(N3CCOCC3)CCCCCC2)o1` was tested, and the “% Inhibition” value was 12% and the Z score was -1.55.
With `Cc1nn(C)c(C)c1S(=O)(=O)NC(=O)[C@@H](C)Cc1cccs1` the “% Inhibition” value was -7% and the Z score was 1.05.
For `Cc1cc(C(=O)Nc2nc(C)cs2)on1`, the “% Inhibition” value was -13% and the Z score was 2.13.
In the case of `COc1ccc(NC(=O)C[C@H]2Cn3cccc3C2=O)cc1`, the “% Inhibition” value was -9% and the Z score was 1.08.
`CCCN(CC(F)(F)F)C(=O)c1[nH]c(C)c(C(=O)OCCOC)c1C` was tested, and the “% Inhibition” value was -12% and the Z score was 1.92.
For `Cc1noc(OCc2cc(O)cc(C(F)(F)F)c2)n1`, the “% Inhibition” value was -8% and the Z score was 1.15.

Reference: ChEMBL document CHEMBL4888484, “Replenishing the malaria drug discovery pipeline: Screening and hit evaluation of the MMV Hit Generation Library 1 (HGL1) against asexual blood stage Plasmodium falciparum ,using a nano luciferase reporter read-out” (2022)
